In this assay the test system is Plasmodium falciparum. Description: Primary screen in NF54 nanoGlo assay, in single point, at 2uM, 72h; a lower Z score goes with more inhibition. Particulars: timepoint 72 hour. The assay is classed as functional, Erythrocyte.

Values joined by “and” are separate entries in the source; they are usually repeats but may differ in a detail not shown here. Equal values may be shown once. Out of some 150,000 compounds screened, about 540 (0.36%) showed an effect of 50% or more. The list shows a part of the results.

In the case of `Cc1cccc(C(=O)N[C@H]2CC[C@H](Nc3nccc(-c4ccncc4)n3)C2)n1`, the “% Inhibition” value is reported as -19% and the Z score is 1.75.
The corresponding values for `Cc1nnc(-c2ccccc2NC(=O)[C@@H]2CC(c3ccccc3)=NO2)o1` are -1% and 0.13.
Take `Cc1cccc(NC(=O)Cn2c(=O)n(CCc3cccs3)c(=O)c3sccc32)c1C`: the “% Inhibition” value is -3% and the Z score is on record as 0.44.
Turning to `CC(C)NC(=O)CNC(=O)CN1C(=O)NC2(CCCCCCC2)C1=O`, the “% Inhibition” value was -8% and the Z score came to 0.78.
On the same counts, the results for `COc1cccc(CN2CCC3(CC2)C[C@H](c2ccccc2)C(=O)N3C)c1` are 1% and -0.1.
Regarding `O=C(CN1CCC(c2ncco2)CC1)Nc1cc(F)cc(F)c1`, the “% Inhibition” value was -5% and the Z score worked out at 0.84.
On the same counts, the results for `COc1cc(C#N)ccc1Oc1ccc(NC(=O)c2sc(NC(=O)C(C)(C)C)cc2C)cc1` are 5% and -0.82.
On the same counts, the results for `COc1cccc(OC2CN(Cc3cccc(F)c3F)C2)c1` are -13% and 1.49.
On the same counts, the results for `COCC[C@]1(NC(=O)c2ccc(F)cc2)CCN(S(=O)(=O)C2CC2)C1` are -1% and 0.17.
With `COc1ccccc1[C@H]1CC(=O)Nc2c1c(C)nn2-c1ncccn1`, the “% Inhibition” value was -3% and the Z score amounted to 0.42.
For the molecule `O=C1CC[C@@]2(CCCN(C(=O)Cc3ccc(CO)cc3)C2)CN1CCO`, the “% Inhibition” value was -4% and the Z score worked out at 0.67.
Turning to `O=C(CN1CCCC1=O)N1CCN(c2ncccn2)CC1`, the “% Inhibition” value was -6% and the Z score worked out at 1.14.
The corresponding values for `C[C@@H](COCc1ncc[nH]1)C(=O)c1ccc(F)c(F)c1` are -8% and 1.13.
On to `CN(C)c1ccc(CCC(=O)N2C[C@H]3C[C@H](O)[C@H](O)C[C@H]3C2)cc1`, for which the “% Inhibition” value is -13% and the Z score was 1.67.
For `Cc1cc(C(=O)N2CC(N3CCNC3=O)C2)nn1C(F)F`, the “% Inhibition” value was 0% and the Z score is -0.07.
As for `CN(Cc1cnc(C(C)(C)C)s1)C1CCN(S(C)(=O)=O)CC1`, the “% Inhibition” value is 3% and the Z score is listed as -0.43.
Take `CCc1c(C(=O)N2CCN(C)C(=O)C2(C)C)nnn1-c1ccc(OC(C)C)cc1`: the “% Inhibition” value was -9% and the Z score is reported as 1.26.
For `CC(=O)N1CCN(c2ncccc2CNC(=O)[C@H](O)c2ccc(F)cc2)CC1`, the “% Inhibition” value is -12% and the Z score came to 1.46.
Take `CCc1nc(CN(C)c2ncccc2S(=O)(=O)N2CCCCC2)cs1`: the “% Inhibition” value is -1% and the Z score amounted to 0.12.
The corresponding values for `Cc1cccc(CN2CCC[C@@](O)(CN3CCN(CC4CCC4)CC3)C2=O)c1` are 2% and -0.38.
As to `COc1cc([C@H]2CC(=O)Nc3nc(N4CCCCC4)sc32)ccc1O`, under “2 µM”, the “% Inhibition” value was -10% and -14%; the Z score was 1.25 and 1.66.
Take `O=S(=O)(Nc1cc(C(F)(F)F)n[nH]1)c1cc(F)c(F)c(F)c1`: the “% Inhibition” value is reported as -10% and the Z score worked out at 1.29.
On the same counts, the results for `Cc1cccc(Cn2ncc(C)c2NC(=O)CCN2CCCCC2=O)c1` are -6% and 1.13.
On to `CCC1(CN=C(NC)NCc2ccco2)CC1`, for which the “% Inhibition” value was found to be 0% and the Z score was -0.03.
In the case of `O=C(c1ccc(F)c(Cl)c1)N1CCN(c2nccn3nc4c(c23)CCCC4)CC1`, the “% Inhibition” value was -8% and the Z score worked out at 1.6.
The corresponding values for `CCc1ccc(CN2CC[C@]3(C2)CN(C)C(=O)CO3)s1` are -7% and 0.82.
Regarding `O=C(c1ccc(N2CCc3ccccc32)s1)N1CCN(c2cccc(Cl)c2)CC1`, the “% Inhibition” value is reported as -17% and the Z score was 2.26.
The corresponding values for `Cc1nc(CN(C(=O)C(C)C)C2CC2)[nH]c(=O)c1Cc1cccc(C(F)(F)F)c1` are 1% and -0.11.
On the same counts, the results for `CC(C)(C)c1noc(OCCOCC(F)F)n1` are -10% and 1.43.
For the molecule `CCn1nccc1CNc1nnc(Cc2ccc3ccccc3c2)o1`, the “% Inhibition” value was determined as 0% and the Z score is -0.03.
The corresponding values for `Cc1cccc2nc(-c3cccs3)c(Nc3ccc4c(c3)OCCO4)n12` are 0% and -0.07.
The corresponding values for `CC(C)c1nnc(NCC(C)(C)N2CCCC2)s1` are -3% and 0.5.
The corresponding values for `Fc1ccc(-c2noc([C@@H]3CCCN3Cc3ccc4c(c3)OCO4)n2)nc1` are 12% and -1.38.
With `C[C@@H](C(=O)NCc1noc(C2CC2)n1)N(c1ccccc1)S(C)(=O)=O`, the “% Inhibition” value stood at 14% and the Z score was -1.78.
On the same counts, the results for `Cc1nc2c(c(-c3cccnc3)n1)CCC2` are -17% and 3.13.
`COc1ccc(C)cc1S(=O)(=O)[C@H]1CS(=O)(=O)C[C@@H]1N(C)CCc1ccncc1`: the “% Inhibition” value is -9% and the Z score was 1.16.
For the molecule `O=C(Cc1ccc(O)c(F)c1)N1CCCO1`, the “% Inhibition” value was -1% and the Z score is 0.19.
Turning to `O=C(c1ccsc1)N1CCN(C(=O)c2nc3ccccc3[nH]2)CC1`, the “% Inhibition” value amounted to 3% and the Z score is listed as -0.43.
The corresponding values for `CS(=O)(=O)[C@H]1CCN(C(=O)c2ccsc2)C1` are -11% and 1.88.
Consider `COc1c[nH]c(C(=O)Nc2nc3c(s2)CCCC3)cc1=O`, for which the “% Inhibition” value is recorded as -11% and the Z score amounted to 2.12.
With `O=C(NCCc1csc(N2CCCC2)n1)Nc1ccnn1Cc1cccs1`, the “% Inhibition” value is on record as -4% and the Z score is on record as 0.56.
The corresponding values for `O=C(NCC[C@H]1CCCO1)c1cnc(-c2ccsc2)s1` are -5% and 0.6.
For `Cc1cnn(Cc2csc(C3CCCC3)n2)c(=O)c1`, the “% Inhibition” value is -6% and the Z score was found to be 1.07.
On the same counts, the results for `CC(C)=CCO[C@H]1COCC[C@@H]1NC(=O)c1cc(C(C)C)no1` are 3% and -0.46.
The corresponding values for `O=C(Nc1cc(F)ccc1F)c1cc2sccc2n1Cc1ccc(Cl)cc1` are -8% and 1.58.
On the same counts, the results for `O=C(Nc1ccc2c(c1)OCO2)N1CCC[C@H]1c1ccc2c(c1)OCCO2` are 4% and -0.72.
Consider `CC(C)c1cccc(N(C)C(=O)c2coc(CN)c2)c1`, for which the “% Inhibition” value is -17% and the Z score is recorded as 2.5.
The corresponding values for `Cc1ccc(O[C@H]2CCN(C(=O)CCc3ccccc3)C2)nn1` are -7% and 1.08.
Turning to `COc1ccccc1-c1cc(=O)n(CC(=O)NCc2ccccc2)c2c1CCCC2`, the “% Inhibition” value was -3% and the Z score is on record as 0.43.
In the case of `Cc1cccc(-c2nc3ccc(C(=O)N4CCN(c5ncccn5)CC4)cc3nc2-c2cccc(C)c2)c1`, the “% Inhibition” value is reported as 17% and the Z score is on record as -2.12.
On the same counts, the results for `Cc1nc(N2CCS(=O)(=O)C[C@@H](C)C2)nc(C)c1CC(C)C` are -7% and 0.86.
As to `CC(C)Oc1ncccc1C(=O)N1CC(C)(CO)C1`, the “% Inhibition” value was -1% and the Z score turned out to be 0.27.
The corresponding values for `COc1ccc(/C=C/c2nc(-c3ccc(=O)[nH]c3)no2)cc1` are -8% and 1.54.
On the same counts, the results for `Cc1nccc(NC(=O)N2CC[C@H](C3CCCC3)C2)n1` are -9% and 1.12.
The corresponding values for `Cc1ccc(CN2CCN(Cc3cccc4c3OCO4)C[C@@H]2CCO)o1` are -7% and 1.38.
Turning to `COc1ccc(C2CCCN2C(=O)CC(Cn2cnnn2)c2ccc(Cl)cc2)c2ccccc12` (stereo unspecified), the “% Inhibition” value was found to be 31% and the Z score was -3.48.
On the same counts, the results for `O=C(CNS(=O)(=O)c1cc(-c2noc(C3CCC3)n2)cs1)N1CCN(c2ccccc2)CC1` are -1% and 0.08.
As for `CCOC(=O)C(F)(F)C1(O)CCN(C(=O)[C@](C)(CC)OC)CC1`, the “% Inhibition” value is -5% and the Z score was found to be 0.64.
On the same counts, the results for `O=C(NCC(=O)N1CCCC1)c1cc(F)cc2[nH]nnc12` are -16% and 2.09.
On the same counts, the results for `Cc1nnc(CN(C)CCCNC(=O)OC(C)(C)C)o1` are -7% and 0.89.
In the case of `Cc1ncsc1C(=O)NCc1cn(-c2cccnc2)nn1`, the “% Inhibition” value was determined as 5% and the Z score is given as -0.96.
For `CN(C)[C@@H]1C[C@H]2C(=O)N[C@@H](CC3CCCCC3)C(=O)N2C1`, the “% Inhibition” value amounted to 7% and the Z score is -1.05.
The corresponding values for `CC(C)c1ccc(C(C)NC(=O)C2CC(O)CN2)cc1` (stereo unspecified) are -1% and 0.14.
Turning to `CC(C)c1noc(OCC(=O)NCc2ccccc2)n1`, the “% Inhibition” value was -5% and the Z score was 0.38.
The corresponding values for `C[C@H](NC1CCCCC1)c1n[nH]c(=O)n1C` are 2% and -0.22.
As to `COc1ccc(CCNC(=O)Cn2c(N3CCc4ccccc4C3)nc(C)cc2=O)cc1OC`, the “% Inhibition” value is 3% and the Z score is listed as -0.43.
The corresponding values for `Cc1cccc(S(=O)(=O)[C@H](C#N)c2nc3ccccc3nc2N2CCN(c3ccccc3)CC2)c1` are 5% and -0.72.
Take `c1cn(CC2(c3nc(C4CCOCC4)n[nH]3)CC2)cn1`: the “% Inhibition” value is -5% and the Z score amounted to 1.04.
On to `Cc1ccc([C@H]2C(=O)N(C3CCCCC3)CC(=O)N2CCC2=CCCCC2)cc1`, for which the “% Inhibition” value is -4% and the Z score came out at 0.55.
On the same counts, the results for `Nc1[nH]nc(-c2ccc(Br)o2)c1-c1ccc2c(c1)OCO2` are -2% and 0.29.
On the same counts, the results for `Cc1nc(NC(=O)CCc2nccs2)n(C)n1` are -9% and 1.26.
As to `Cc1ccc2nc(CN3CCN(c4ccc5cn[nH]c5c4)C(=O)C3)cn2c1`, the “% Inhibition” value is on record as -9% and the Z score is 1.12.
With `Cn1c(=O)c(C(=O)NCc2ccccc2)nc2cccnc21`, the “% Inhibition” value was -10% and the Z score stood at 1.54.
On the same counts, the results for `C=CCn1c(-c2ccccc2Cl)cn2cc(C(=O)NCCO)nc2c1=O` are -8% and 1.03.
With `CC[C@H](NC(=O)CCn1cccn1)C1CC(O)C1` (stereo partly specified), the “% Inhibition” value is given as -6% and the Z score stood at 1.28.
The corresponding values for `CC(C)=C(C)C(=O)Nc1ccc(Cl)c(C#N)c1` are -5% and 0.77.
The corresponding values for `Cc1c(N[C@H]2C[C@@](C)(O)C2)nn2c(C(F)(F)F)nnc2c1C` are -8% and 1.3.
`COc1ccc(NC(=O)CC(=O)N[C@H](CO)Cc2ccc(Cl)cc2)c(OC)c1`: the “% Inhibition” value was -9% and the Z score is 1.8.
Consider `COc1cccn(CC(=O)N2Cc3ccccc3C2)c1=O`, for which the “% Inhibition” value is reported as -16% and the Z score was 2.03.
As for `O=C(NC1CC1)c1ccccc1NS(=O)(=O)Cc1cc(Cl)cc(Cl)c1`, the “% Inhibition” value is listed as -1% and the Z score is listed as 0.14.
The corresponding values for `Cc1ccc(S(=O)(=O)N2CC(Cc3nncn3C3CCCC3)C2)cc1F` are -11% and 2.1.
The corresponding values for `Cc1nc(-c2ccc(C)c(S(=O)(=O)N3CCc4ccccc43)c2)cs1` are 3% and -0.43.
On the same counts, the results for `COc1ccc(CCOc2nc(-c3ccc(Cl)c(Cl)c3)n(-c3cccc(NC(=O)c4ccccc4F)c3)n2)cc1` are -1% and 0.25.

The term % Inhibition denotes the change of the read-out against control, counted positive when it falls.

The record behind these values is ChEMBL document CHEMBL4888484, “Replenishing the malaria drug discovery pipeline: Screening and hit evaluation of the MMV Hit Generation Library 1 (HGL1) against asexual blood stage Plasmodium falciparum ,using a nano luciferase reporter read-out” (2022).
